Values marked as one replicate rest on one cluster of the flow cell; about a third of the high ones do not repeat.
tested on: ATP; assay: switch fluorescence ratio, 500 uM ATP over buffer (Cy3 cluster intensity, sum of 5 cycles each) (fold (ratio)); higher = stronger signal-on switching upon ATP binding; sequences stand for … in TCGTCGGCAGCGTCAGATGTGTATAAGAGACAGTTTTTTTTTTTTTTTTTTTTTTTTT…TC; settings: aptamer strand: ATP DNA aptamer (quencher-CACCTGGGGGAGTATTGCGGAGGAAGG + anchor), 100 nM annealed; ATP concentration: 500 uM; one replicate
Outline: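 Clusters with intensities outside 100-1000 RFU were excluded. The remaining Cy3-labelled switching-strand clusters on a modified Illumina MiSeq flow-cell had been annealed to 100 nM quencher-labelled ATP aptamer and imaged in selection buffer, then after 15 min with 500 uM ATP at 22 °C, for five cycles separated by NaOH stripping and re-annealing. The fluorescence ratio, averaged per switch-domain sequence, is each cluster's summed target-cycle Cy3 intensity over its summed buffer-cycle Cy3 intensity.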
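Note: ATP exposure 15 min at 22 °C before imaging.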

Sequence	switch fluorescence ratio
TCCTTTCGGT	1.01
TCCTTTTACA	1.04
TCGAAAAGTG	1
TCGAAAAGTT	1
TCGAAAGAAA	1.02
TCGAAAGACA	1.02
TCGAACGAGA	1.01
TCGAAGACGA	1.12
TCGAAGTGCT	0.996
TCGAATGCTC	1.18
TCGAATTACG	1.1
TCGAATTATT	0.964
TCGACCCTGG	1.11
TCGACCGGGA	1.08
TCGACGCCTG	1.22
TCGACGTTCT	1.04
TCGAGAG	1
TCGAGATGAC	1.06
TCGAGCCGCT	1.01
TCGAGTAGCG	1.03
TCGATATCAT	1.01
TCGATGGTAA	0.97
TCGATTGAG	0.951
TCGATTGAGT	0.975
TCGATTGGCC	0.993

Sequence	switch fluorescence ratio
TCGATTGTCC	1
TCGATTGTCG	1.02
TCGCAACGCT	1.2
TCGCAACGG	1.01
TCGCAATTTG	2.33
TCGCACCTGA	1.07
TCGCACGGGC	1.09
TCGCATCGCG	0.968
TCGCATGCGG	0.978
TCGCCCAGAC	3.1
TCGCCGTAAA	1.02
TCGCCTACGA	1.05
TCGCCTGGT	0.986
TCGCGAGGTA	0.961
TCGCGCCGAC	1.07
TCGCGCCTGG	1.09
TCGCGCTAAT	1.19
TCGCGGAGAC	2.69
TCGCGTCGA	1.06
TCGCGTTAGA	1.02
TCGCTACGTT	1.03
TCGCTCCGCC	4.01
TCGCTGCCCT	0.97
TCGCTGGAA	1.04
TCGCTGGACA	0.975

Sequence	switch fluorescence ratio
TCGCTGGCTA	0.999
TCGCTGGGCT	0.983
TCGCTGTATC	0.977
TCGCTTCTAT	1.06
TCGGAAGCCG	1.02
TCGGAATTGG	1.1
TCGGACACGG	1.04
TCGGACTACT	1.13
TCGGAGAAGT	0.993
TCGGAGTCGC	1.07
TCGGATATAT	1
TCGGCAAAC	2.32
TCGGCAGGG	0.98
TCGGCAGGGT	1.02
TCGGCATGCG	0.953
TCGGCATGGT	1.02
TCGGCCGCGG	1.12
TCGGCGTCTC	1.03
TCGGCTATTC	1.46
TCGGGACTTA	1.01
TCGGGATTTG	1
TCGGGCTAAA	0.979
TCGGGCTTGC	1.05
TCGGGCTTGG	0.97
TCGGGGAAGG	1.02

Sequence	switch fluorescence ratio
TCGGGGCTAA	1.06
TCGGGGGCCC	0.988
TCGGGGGTAC	1.06
TCGGGTAGCC	1.03
TCGGGTCCGG	1
TCGGGTCTTT	1.01
TCGGTATTCT	1.05
TCGGTCAGTC	1.02
TCGGTTAG	1.01
TCGGTTGAAA	0.95
TCGGTTTTCA	1.03
TCGTAAATAA	1.09
TCGTAACTTT	1.03
TCGTAAGTAG	0.971
TCGTAAGTCA	1.01
TCGTACAAGG	1.04
TCGTACCCTG	0.982
TCGTACTAGG	0.984
TCGTACTCTA	1.24
TCGTAGAAT	0.988
TCGTAGGAA	1.06
TCGTCAAAAG	1.01
TCGTCACGTC	1.02
TCGTCCTGTG	1.01
TCGTCGATAT	1.17
